Measurements reported in the RNAGym collection of RNA variant scans (doi:10.1073/pnas.2313332121).
Variants at the floor of the assay are shown more often than the library holds them.

B1: TPR 5TU (parent)
chain: GGAUCUUCUCGAUCUAACAAAAAAGACAAAUCUGCCACAAAGCUUGAGAGCAUCUUCGGAUGCAGAGGCGGCAGCCUUCGGUGGCGCGAUAGCGCCAACGUUCUCAACUAUGACACGCAAAACGCGUGCUCCGUUGAAUGGAGUUUAUCAUG

Variants of: B1
Assay: polymerase ribozyme fitness, log enrichment relative to wild type (log ratio); higher = more active; in vitro selection for triplet polymerase activity
Procedure, shortened: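 Fitness compares each genotype's enrichment to that of the wild type on a logarithmic scale, averaging replicates with inverse-variance weights. The logarithm is base 2. Enrichment came from Illumina sequencing of input and output libraries after one triplicate round of in vitro selection, which included frozen incubation at −7 °C, of PCR-built, transcribed mutant libraries of each subunit of a heterodimeric triplet polymerase ribozyme. Only genotypes with ≥10 input reads and ≥1 read per output were kept.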

Polymerase ribozyme fitness (log ratio), -0.468:
C54U C72U

Polymerase ribozyme fitness (log ratio), -1.81:
U53A C118G U144C

Polymerase ribozyme fitness (log ratio), -1.25:
U53A A98G U101G

Polymerase ribozyme fitness (log ratio), -0.408:
C54A G81C

Polymerase ribozyme fitness (log ratio), -0.31:
U55A G126U

Polymerase ribozyme fitness (log ratio), -2.38:
C54G G94U C123U G133C

Polymerase ribozyme fitness (log ratio), -4.12:
C54A C96G C103U C116A G136U

Polymerase ribozyme fitness (log ratio), -3.82:
U53A C96A C129G

Polymerase ribozyme fitness (log ratio), -4.18:
U55A C79G G81A

Polymerase ribozyme fitness (log ratio), -4.17:
U55A G84U G128U U134C
C54U G81U G83U G152U

Polymerase ribozyme fitness (log ratio), -0.296:
U55A U134C

Polymerase ribozyme fitness (log ratio), -2.72:
U55A U127G

Polymerase ribozyme fitness (log ratio), -0.736:
C54U G143A

Polymerase ribozyme fitness (log ratio), -4.03:
U53G C54U C96U A98G G133C G141U

Polymerase ribozyme fitness (log ratio), -3:
C54A C57G

Polymerase ribozyme fitness (log ratio), -2.89:
C54A G94U A97C C125G

Polymerase ribozyme fitness (log ratio), -0.135:
U55C G92C

Polymerase ribozyme fitness (log ratio), -1.79:
C54A A97U

Polymerase ribozyme fitness (log ratio), ≤ -4.2:
U55A U61G C76A C103A A122G
A52U G88C
C54U U55A G83C G112A U148G
U55A C76G C96U
U55A U77C C105A A107U U127G A137C
U55A U61G C72U C93U
U55A U78A G86A
U55A G84C G88A G112C C114U
U53A G62U G67C C72U C93U C114A C125U
U55A A89C C96G U102C C108U C114U
U53A U55G U61A C85U A106U A147C
U53G C93G C116G G124U G141A U148G
C54A G67C G80A G84A U135A
C54A C79G G128A
C54A C85G C95G C114A U134G
C54A G67U U90C C95G U127C
C54U U77C G84A U109C
A52U U55A C85A U111G C125U G141C U146C
C54G C72U U135C
U53G G74A A142C
U55A U61A C93U C103A
C54G C87G C103A C129G C132U
U55A C132A A137G G143A U146G
C54U C85G C87U A106U C114U A147C
C54A C79A G100A
U55A C72A C99U G126A U139C
U53G G62A A64C
C54A U55A A106G G141A G143C C149G
C54A A64G U111C G133U G140A G143A
U55C U56C G59C C75G G84U G133U
U53G C95U C105G G124A G152A
C54A G65C
C54U U55G G92U C132G
U53A A60U C63U C75U U77G C93G A122G C149G U151A
C54A U55A A60C C93U A119C U148G
U55A G59C G80C G83C A107G C132A
C54U U56A G128U G133U U145G
U53A C87A
C54A C96G U139A U151G
U55A A64U C85U
C54U U55G U61G G92A
C54G G80U C103A
C54U G94U U111G G128C
C54G C87U C95A C96U G133U
C54U G58C G59C G67C A119G G126A
U53A A73G G86A C93U C95A A97U C114U U151G
C54A C76G A89U G92U U130G C149A U151A
U55C C79A A89G U139A A142C
U53A C79A G92A C105U A138U A150U
U53G C103G
C54U G67U G86U C95A
U53A A60U U61G C72G G86U C108G A120U
U55C C63U C85G A107U A142U U145A
U53A U77G U148A A150C
U55A U61G G86U
U53G C93A C95A A97U A98C G100U U130G G140U
U55A G71A U77C C95U A113C C149G
U55A G84U G100U C108U U151A
C54U G86C A106G U144G U148A
C54A C75G C85U U90A C123U

Polymerase ribozyme fitness (log ratio), -3.36:
U55A C69U G94C

Polymerase ribozyme fitness (log ratio), -1.11:
U53A U56G

Polymerase ribozyme fitness (log ratio), -4.08:
C54A G92U U135G

Polymerase ribozyme fitness (log ratio), -0.319:
U53A C54U

Polymerase ribozyme fitness (log ratio), -1.99:
U55A U134G
